The text below walks through data of PubChem BioAssay AID463173 (ICCB-Longwood Screening Facility, Harvard Medical School, 2010).

Among all 52,000 compounds or so, about 4,300 (8.3%) were called active. No stated cut-off is given here; in the data, active means survival mostly below about 52% (no sharp cut-off); inactive means mostly above about 56%. The list shows a part of the results.

The test concerns DeltatarO mutant. The test is described as follows: S. aureus survival, RN4220 and DeltatarO strains – OD600, teichoic acid synthesis inhibitors, primary screen (AID 463173). The following applies: S. aureus RN4220 wild type/DeltatarO growth, OD600, 18 h, active compounds read low, screened at 18.75 µg/mL (by protocol).
Turning to `CCn1c(CN2CCOCC2)nc2cc(NC(=O)c3ccccc3[N+](=O)[O-])ccc21`, the survival is inactive: 86%.

Take `O=C(Cn1nnc(-c2ccccc2NC(=O)c2cnccn2)n1)Nc1ccc2c(c1)OCCO2`: the survival is inactive: 105%.

As to `CCN(C(=O)Cn1c(=O)n(CCCS(=O)(=O)C2CCCCC2)c(=O)c2ccccc21)c1cccc(C)c1`, the survival is inactive: 87%.

In the case of `COc1cccc(-n2cc(C(=O)Nc3cccc(C(F)(F)F)c3)c3ccccc3c2=O)c1`, the survival is inactive: 61%.

As to `COc1ccccc1N1CCN(C(=O)Cn2ncc3ccsc3c2=O)CC1`, the survival is inactive: 114%.

As for `CC(C)Oc1ccc(CNC(=O)c2ccc(CS(=O)c3cccc(Cl)c3)o2)cc1` (centres undefined), the survival was active: 52%.

As for `Cc1ccc(NC(=O)N2CCc3cc(S(=O)(=O)N4CCC(C)CC4)ccc32)cc1`, the survival is inactive: 96%.

As to `O=C(Nc1ccccc1Cl)NC1(C(=O)N2CCCCC2)CCCCC1`, the survival was inactive: 84%.

With `CCOc1ccc(-c2cc(CCCC(=O)NCCc3ccc(Cl)cc3)no2)cc1`, the survival was inactive: 74%.

Regarding `O=C(NCCc1csc(-c2ccc(C(F)(F)F)cc2)n1)c1ccc(F)c(F)c1`, the survival was inactive: 82%.

As for `Cc1cccc(NC(=O)CSc2nc(-c3cccs3)cc(C(F)(F)F)c2C#N)c1C`, the survival was inactive: 68%.

In the case of `COC(=O)c1c(-c2cccs2)csc1NC(=O)c1cccc(Cl)c1`, the survival was inactive: 93%.

For `COC(=O)c1c(-c2cccs2)csc1NC(=O)c1ccc(Br)cc1`, the survival is inactive: 51%.

As to `CC(O)CNCc1ccc2c(c1)OCO2` (centres undefined), the survival was inactive: 101%.

Consider `CCN(c1cccc(C)c1)S(=O)(=O)c1ccc(-n2cccn2)cc1`, for which the survival is inactive: 73%.

Take `CCc1ccc(NC(=O)CCS(=O)(=O)c2cc3c(cc2Cl)NC(=O)CO3)cc1`: the survival was inactive: 91%.

`CC1=C(C(=O)Nc2ccccc2)C(c2ccccc2C)n2nc(SCC(=O)c3ccc(C)cc3)nc2N1` (centres undefined): the survival is inactive: 74%.

In the case of `CCCCC(c1nnnn1CCc1ccccc1)N1CCN(C2CCCC2)CC1` (centres undefined), the survival is inactive: 87%.

Take `COCCCNc1nc2c(S(=O)(=O)c3ccccc3)nnn2c2ccc(Cl)cc12`: the survival was inactive: 95%.

As for `O=C(NCc1cccs1)c1nn(-c2ccccc2Cl)nc1CO`, the survival was inactive: 105%.

Take `Cc1[nH]n(-c2ccccc2)c(=O)c1C(c1cc(Cl)ccc1O)c1c(C)[nH]n(-c2ccccc2)c1=O`: the survival is inactive: 49%.

Consider `CCOC(=O)c1ccccc1NC(=O)N1CCN(Cc2cc(=O)n3nc(-c4ccccc4)sc3n2)CC1`, for which the survival was inactive: 70%.

For `N#Cc1ccc(S(=O)(=O)N2CCC(Oc3cccc(C(F)(F)F)c3)CC2)cc1`, the survival is inactive: 67%.

As to `COc1ccc(CNC(=O)C(=O)Nc2c3c(nn2-c2ccccc2)CSC3)cc1`, the survival was inactive: 86%.

Take `COc1cc(OC)c(OC)cc1CN1CCc2nc(Nc3ccc4c(c3)OCCO4)ncc2C1`: the survival was inactive: 80%.

In the case of `CCCNC(=O)C1=CC(c2ccc3c(c2)OCO3)=NS(=O)(=O)N1C`, the survival was inactive: 83%.

For the compound `CCN(c1ccccc1)S(=O)(=O)c1cc(Br)cc2c1N(C(=O)C1CC1)CC2`, the survival is inactive: 60%.

With `Cc1ccc(-c2cc(C(=O)NCc3cnn(C)c3C)c3ccccc3n2)cc1C`, the survival was active: 49%.

For `Cc1ccc(C(=O)N2CCc3cc(CNC(=O)CSc4ccccc4)ccc32)cc1`, the survival was inactive: 81%.

As for `Cc1cccc(N(C(=O)c2csnn2)C(C(=O)NC2CCCCC2)c2ccco2)c1` (centres undefined), the survival was inactive: 87%.

Regarding `Cc1cccc(-c2c3c(=O)n(C)c(=O)n(C)c3c3c(C)nc4ccccc4n23)c1`, the survival is inactive: 129%.

Turning to `CCc1ccc(NC(=O)c2cccc(N3CCCS3(=O)=O)c2)cc1`, the survival is inactive: 81%.

In the case of `Cc1ccc(NC(=O)CN2C(=O)C(c3ccc(C)cc3)=NC23CCCCCC3)cc1`, the survival was inactive: 62%.

As to `Cc1ccc(C)c(N2CCN(C(=O)CCS(=O)(=O)c3ccc4c(c3)oc(=O)n4C)CC2)c1`, the survival was inactive: 115%.

For `COc1ccc2c(c1)c(=O)c(S(=O)(=O)c1ccc(Cl)cc1)cn2Cc1cc(C)ccc1C`, the survival was inactive: 68%.

In the case of `CCOc1cc2c(cc1OCC)C(CC(=O)OC)N(C(=O)Nc1cc(OC)ccc1OC)CC2` (centres undefined), the survival is inactive: 83%.

As to `CCN(CC)C(=O)c1sc2c(c1C)c(=O)n(CCc1ccccc1)c(=O)n2Cc1ccc(C)cc1`, the survival is inactive: 79%.

For `Cc1cc(C)cc(NC(=O)Cn2nc(N3CCN(c4ccccc4)CC3)ccc2=O)c1`, the survival is inactive: 84%.

For the compound `Cc1ccc(C(C)N2CCN(S(=O)(=O)c3ccc4c(c3)OCCO4)CC2)cc1C` (centres undefined), the survival is inactive: 66%.

As to `CC(=O)c1c(C)n(S(=O)(=O)c2ccc(Cl)cc2)c2ccc(NS(=O)(=O)c3ccc(Cl)cc3)cc12`, the survival was inactive: 59%.

For the compound `COc1ccc(S(=O)(=O)NCCc2sc(-c3cccnc3)nc2C)cc1OC`, the survival was inactive: 88%.

In the case of `COc1cc(CN(C(=O)c2ccccc2Br)c2ccccn2)cc(OC)c1OC`, the survival is inactive: 72%.

In the case of `Cc1ccc(CNC(=O)CCSCc2cnn(-c3ccccc3)c2-n2cccc2)cc1`, the survival is inactive: 64%.

On to `COc1ccc(NCc2cccn2-c2nnc(N3CCOCC3)s2)cc1OC`, for which the survival is inactive: 87%.

For `COc1ccc(CNC(=O)Cn2ncc3c(=O)oc4ccccc4c32)c(OC)c1`, the survival was inactive: 89%.

In the case of `CCCCNC(=O)c1cc(-c2cccnc2)nc2ccc(S(=O)(=O)NCCCC)cc12`, the survival was inactive: 70%.

Take `COC(=O)CCCn1c(-c2ccc(C)cc2)c(C)n2c3c(=O)n(C)c(=O)n(C)c3nc12`: the survival is inactive: 58%.

On to `COc1ccc(CNC(=O)CC2N=C3c4ccccc4N=C(SCC(=O)Nc4ccc(C(C)C)cc4)N3C2=O)cc1` (centres undefined), for which the survival is inactive: 90%.

Regarding `COc1ccc(-c2cn3c(n2)sc2cc(C(=O)NC(C)C45CC6CC(CC(C6)C4)C5)ccc23)cc1` (centres undefined), the survival was inactive: 72%.

`COCc1cc(C)nc2sc3c(c12)NC(c1ccccc1C(=O)O)N(c1cccc(C(F)(F)F)c1)C3=O` (centres undefined): the survival is inactive: 97%.

As for `COc1cc([N+](=O)[O-])ccc1NC(=O)c1nc2ccccc2n(C)c1=O`, the survival was inactive: 102%.

As to `Cc1ccc(S(=O)(=O)c2nc(-c3cccc(Br)c3)oc2N2CCCCCC2)cc1`, the survival was active: 45%.

Take `O=C(CSc1nnc2[nH]c(=O)cc(-c3ccccc3)n12)Nc1ccc(OC(F)(F)F)cc1`: the survival is inactive: 80%.

Consider `Cc1csc2nc(COC(=O)c3cccc(NC(=O)COc4ccccc4Cl)c3)cc(=O)n12`, for which the survival was inactive: 88%.
